Where a chain is given by its changes, count along the chain named. This is one part of the list.
T1: RBFOX1 RRM RbFoxmut (Fox-RRM*) (Homo sapiens, UniProt Q9NWB1 109-208, R118D;E147R;N151S;E152T)
T1 sequence: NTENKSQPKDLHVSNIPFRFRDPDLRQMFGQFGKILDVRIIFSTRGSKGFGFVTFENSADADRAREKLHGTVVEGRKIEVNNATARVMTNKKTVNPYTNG

B1: UCGGAGA (DNA:RNA)
RNA: GGGAGACCGGAAUUCAGAUUGUCCUCGGAGAUUAAAUCCCGUCGUAGCCACCA
DNA 1: CAATCTGAATTCCGGTCTCCC
DNA 2: TGGTGGCTACGACGGGATT
B2: UUUUGCG (DNA:RNA)
RNA: B1 RNA with C26U, G27U, G28U, A29G, G30C, A31G
DNA 1: CAATCTGAATTCCGGTCTCCC
DNA 2: TGGTGGCTACGACGGGATT
B3: CCUGUGG (DNA:RNA)
RNA: B1 RNA with U25C, G27U, A29U, A31G
DNA 1: CAATCTGAATTCCGGTCTCCC
DNA 2: TGGTGGCTACGACGGGATT
B4: CACCGAG (DNA:RNA)
RNA: GGGAGACCGGAAUUCAGAUUGUCCCACCGAGUUAAAUCCCGUCGUAGCCACCA
DNA 1: CAATCTGAATTCCGGTCTCCC
DNA 2: TGGTGGCTACGACGGGATT
B5: AAUGACA (DNA:RNA)
RNA: B1 RNA with U25A, C26A, G27U, G30C
DNA 1: CAATCTGAATTCCGGTCTCCC
DNA 2: TGGTGGCTACGACGGGATT
B6: CGCUUGU (DNA:RNA)
RNA: B4 RNA with A26G, C28U, G29U, A30G, G31U
DNA 1: CAATCTGAATTCCGGTCTCCC
DNA 2: TGGTGGCTACGACGGGATT
B7: GGUGAGC (DNA:RNA)
RNA: B1 RNA with U25G, C26G, G27U, A31C
DNA 1: CAATCTGAATTCCGGTCTCCC
DNA 2: TGGTGGCTACGACGGGATT
B8: CGUGCAA (DNA:RNA)
RNA: B4 RNA with A26G, C27U, C28G, G29C, G31A
DNA 1: CAATCTGAATTCCGGTCTCCC
DNA 2: TGGTGGCTACGACGGGATT
B9: CUAUUUC (DNA:RNA)
RNA: B4 RNA with A26U, C27A, C28U, G29U, A30U, G31C
DNA 1: CAATCTGAATTCCGGTCTCCC
DNA 2: TGGTGGCTACGACGGGATT
B10: CUUCCGG (DNA:RNA)
RNA: B4 RNA with A26U, C27U, G29C, A30G
DNA 1: CAATCTGAATTCCGGTCTCCC
DNA 2: TGGTGGCTACGACGGGATT
B11: GAUGCGA (DNA:RNA)
RNA: B1 RNA with U25G, C26A, G27U, A29C
DNA 1: CAATCTGAATTCCGGTCTCCC
DNA 2: TGGTGGCTACGACGGGATT
B12: AGUAACU (DNA:RNA)
RNA: B1 RNA with U25A, C26G, G27U, G28A, G30C, A31U
DNA 1: CAATCTGAATTCCGGTCTCCC
DNA 2: TGGTGGCTACGACGGGATT
B13: UGAAAGG (DNA:RNA)
RNA: B1 RNA with C26G, G27A, G28A, A31G
DNA 1: CAATCTGAATTCCGGTCTCCC
DNA 2: TGGTGGCTACGACGGGATT
B14: CUGAGGA (DNA:RNA)
RNA: B1 RNA with U25C, C26U, G28A, A29G
DNA 1: CAATCTGAATTCCGGTCTCCC
DNA 2: TGGTGGCTACGACGGGATT
B15: GUCGGAU (DNA:RNA)
RNA: B4 RNA with C25G, A26U, C28G, G31U
DNA 1: CAATCTGAATTCCGGTCTCCC
DNA 2: TGGTGGCTACGACGGGATT
B16: UAAGUGA (DNA:RNA)
RNA: B1 RNA with C26A, G27A, A29U
DNA 1: CAATCTGAATTCCGGTCTCCC
DNA 2: TGGTGGCTACGACGGGATT
B17: AGGCUUA (DNA:RNA)
RNA: B1 RNA with U25A, C26G, G28C, A29U, G30U
DNA 1: CAATCTGAATTCCGGTCTCCC
DNA 2: TGGTGGCTACGACGGGATT
B18: CCCUAAG (DNA:RNA)
RNA: B4 RNA with A26C, C28U, G29A
DNA 1: CAATCTGAATTCCGGTCTCCC
DNA 2: TGGTGGCTACGACGGGATT
B19: CGGGUCG (DNA:RNA)
RNA: B4 RNA with A26G, C27G, C28G, G29U, A30C
DNA 1: CAATCTGAATTCCGGTCTCCC
DNA 2: TGGTGGCTACGACGGGATT
B20: GCGGUGC (DNA:RNA)
RNA: B1 RNA with U25G, A29U, A31C
DNA 1: CAATCTGAATTCCGGTCTCCC
DNA 2: TGGTGGCTACGACGGGATT
B21: UAUGUAA (DNA:RNA)
RNA: B1 RNA with C26A, G27U, A29U, G30A
DNA 1: CAATCTGAATTCCGGTCTCCC
DNA 2: TGGTGGCTACGACGGGATT
B22: CGAUGUA (DNA:RNA)
RNA: B4 RNA with A26G, C27A, C28U, A30U, G31A
DNA 1: CAATCTGAATTCCGGTCTCCC
DNA 2: TGGTGGCTACGACGGGATT
B23: CGGCUGA (DNA:RNA)
RNA: B1 RNA with U25C, C26G, G28C, A29U
DNA 1: CAATCTGAATTCCGGTCTCCC
DNA 2: TGGTGGCTACGACGGGATT
B24: AUCGCAA (DNA:RNA)
RNA: B4 RNA with C25A, A26U, C28G, G29C, G31A
DNA 1: CAATCTGAATTCCGGTCTCCC
DNA 2: TGGTGGCTACGACGGGATT
B25: GUGAUUA (DNA:RNA)
RNA: B1 RNA with U25G, C26U, G28A, A29U, G30U
DNA 1: CAATCTGAATTCCGGTCTCCC
DNA 2: TGGTGGCTACGACGGGATT
B26: ACACAAA (DNA:RNA)
RNA: B1 RNA with U25A, G27A, G28C, G30A
DNA 1: CAATCTGAATTCCGGTCTCCC
DNA 2: TGGTGGCTACGACGGGATT
B27: UCGGAUG (DNA:RNA)
RNA: B1 RNA with G30U, A31G
DNA 1: CAATCTGAATTCCGGTCTCCC
DNA 2: TGGTGGCTACGACGGGATT
B28: AGAUGCA (DNA:RNA)
RNA: B4 RNA with C25A, A26G, C27A, C28U, A30C, G31A
DNA 1: CAATCTGAATTCCGGTCTCCC
DNA 2: TGGTGGCTACGACGGGATT
B29: CAAAUCU (DNA:RNA)
RNA: B4 RNA with C27A, C28A, G29U, A30C, G31U
DNA 1: CAATCTGAATTCCGGTCTCCC
DNA 2: TGGTGGCTACGACGGGATT
B30: AUUCGGU (DNA:RNA)
RNA: B4 RNA with C25A, A26U, C27U, A30G, G31U
DNA 1: CAATCTGAATTCCGGTCTCCC
DNA 2: TGGTGGCTACGACGGGATT
B31: UCAGGCA (DNA:RNA)
RNA: B1 RNA with G27A, A29G, G30C
DNA 1: CAATCTGAATTCCGGTCTCCC
DNA 2: TGGTGGCTACGACGGGATT

Molecular target: T1, RBFOX1 RRM RbFoxmut (Fox-RRM*)
Experiment: EMSA; HiTS-Eq, 1 nM pool, 10 min; buffer printed only for the single-RNA assays: 10 mM Tris pH 7.5, 150 mM NaCl, 3.4 mM EDTA, 0.001% NP-40, 30 C
Conditions: tags: His6 N-terminal (pET28a); label: 5' 32P
Procedure, shortened: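 A pool of RNA with 7 randomized nucleotides, 5′-radiolabelled and with DNA-annealed flanks, was equilibrated at 1 nM for 10 min in 50 µL with purified RbFox RRM, wild type or mutant, across increasing protein concentrations. Free RNA was separated by 8% native PAGE, excised, reverse-transcribed, barcoded by PCR and sequenced. Relative association constants were obtained from read-count changes of each RNA species versus the control reaction and normalised to the cognate motif.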

First: B1
Second: B2
The binding signal of the first is lower: 0.0882 KA relative to UGCAUGU for the first, 0.146 KA relative to UGCAUGU for the second.

First: B3
Second: B4
The binding signal of the first is lower: 0.0709 KA relative to UGCAUGU for the first, 0.104 KA relative to UGCAUGU for the second.

Compared with B5, B6 is higher in binding signal: 0.0636 KA relative to UGCAUGU for the first, 0.256 KA relative to UGCAUGU for the second.

First: B7
Second: B8
The binding signal of the first is higher: 0.0842 KA relative to UGCAUGU for the first, 0.0738 KA relative to UGCAUGU for the second.

Compared with B9, B10 is lower in binding signal: 0.0582 KA relative to UGCAUGU for the first, 0.0369 KA relative to UGCAUGU for the second.

First: B11
Second: B12
The binding signal of the first is lower: 0.0634 KA relative to UGCAUGU for the first, 0.0997 KA relative to UGCAUGU for the second.

Compared with B13, B14 is higher in binding signal: 0.032 KA relative to UGCAUGU for the first, 0.0696 KA relative to UGCAUGU for the second.

First: B15
Second: B16
The binding signal of the first is higher: 0.0802 KA relative to UGCAUGU for the first, 0.0771 KA relative to UGCAUGU for the second.

Compared with B17, B18 is lower in binding signal: 0.133 KA relative to UGCAUGU for the first, 0.076 KA relative to UGCAUGU for the second.

First: B19
Second: B20
The binding signal of the first is higher: 0.259 KA relative to UGCAUGU for the first, 0.102 KA relative to UGCAUGU for the second.

Compared with B21, B22 is higher in binding signal: 0.0863 KA relative to UGCAUGU for the first, 0.202 KA relative to UGCAUGU for the second.

First: B23
Second: B24
The binding signal of the first is higher: 0.126 KA relative to UGCAUGU for the first, 0.0865 KA relative to UGCAUGU for the second.

First: B25
Second: B26
The binding signal of the first is higher: 0.138 KA relative to UGCAUGU for the first, 0.0812 KA relative to UGCAUGU for the second.

First: B27
Second: B28
The binding signal of the first is lower: 0.119 KA relative to UGCAUGU for the first, 0.152 KA relative to UGCAUGU for the second.

First: B29
Second: B30
The binding signal of the first is lower: 0.0525 KA relative to UGCAUGU for the first, 0.108 KA relative to UGCAUGU for the second.

For B31, the binding signal was 0.108 KA relative to UGCAUGU.
